# Article PMC8694192, “Synthesis and biological evaluation of new derivatives of thieno-thiazole and dihydrothiazolo-thiazole scaffolds integrated with a pyrazoline nucleus as anticancer and multi-targeting kinase inhibitors” (RSC Advances, 2021)
# What was measured:
# S. pneumoniae 010010 [1] = test: Agar well diffusion, inhibition zone; type: cell-based; conditions: Streptococcus pneumoniae, 010010, read-out: Mean diameter of inhibition zone (mean ± SEM) S. pneumoniae 010010
# E. coli RCMB 010052 [2] = test: Agar well diffusion, inhibition zone; type: cell-based; conditions: Escherichia coli, RCMB010052, read-out: Mean diameter of inhibition zone (mean ± SEM) E. coli RCMB 010052
# S. typhi ATCC 14028 [3] = test: Agar well diffusion, inhibition zone; type: cell-based; conditions: Salmonella enterica, read-out: Mean diameter of inhibition zone (mean ± SEM) S. typhi ATCC 14028
# P. aeruginosa [4] = test: Agar well diffusion, inhibition zone; type: cell-based; conditions: Pseudomonas aeruginosa, read-out: Mean diameter of inhibition zone (mean ± SEM) P. aeruginosa
# A. fumigatus RCMB 02568 [5] = test: Agar well diffusion, inhibition zone; type: cell-based; conditions: Aspergillus fumigatus, RCMB02568, read-out: Mean diameter of inhibition zone (mean ± SEM) A. fumigatus RCMB 02568
# C. albicans ATCC 10231 [6] = test: Agar well diffusion, inhibition zone; type: cell-based; conditions: Candida albicans, ATCC10231, read-out: Mean diameter of inhibition zone (mean ± SEM) C. albicans ATCC 10231
# S. typhi ATCC 14028 [7] = test: MIC, two-fold serial dilution; type: cell-based; conditions: Salmonella enterica, read-out: MIC S. typhi ATCC 14028
# S. aureus 25923 [8] = test: MIC, two-fold serial dilution; conditions: Staphylococcus aureus, 25923, read-out: MIC S. aureus 25923
# E. faecalis [9] = test: MIC, two-fold serial dilution; conditions: Enterococcus faecalis, read-out: MIC E. faecalis
# S. pneumoniae 010010 [10] = test: MIC, two-fold serial dilution; conditions: Streptococcus pneumoniae, 010010, read-out: MIC S. pneumoniae 010010
# E. coli RCMB 010052 [11] = test: MIC, two-fold serial dilution; conditions: Escherichia coli, RCMB010052, read-out: MIC E. coli RCMB 010052
# P. aeruginosa [12] = test: MIC, two-fold serial dilution; conditions: Pseudomonas aeruginosa, read-out: MIC P. aeruginosa
# A. fumigatus RCMB 02568 [13] = test: MIC, two-fold serial dilution; conditions: Aspergillus fumigatus, RCMB02568, read-out: MIC A. fumigatus RCMB 02568
# C. albicans ATCC 10231 [14] = test: MIC, two-fold serial dilution; conditions: Candida albicans, ATCC10231, read-out: MIC C. albicans ATCC 10231
# S. aureus 25923 [15] = test: Agar well diffusion, inhibition zone; type: cell-based; conditions: Staphylococcus aureus, 25923, read-out: Mean diameter of inhibition zone (mean ± SEM) S. aureus 25923
# E. faecalis [16] = test: Agar well diffusion, inhibition zone; type: cell-based; conditions: Enterococcus faecalis, read-out: Mean diameter of inhibition zone (mean ± SEM) E. faecalis
Structure (SMILES),zone of inhibition at 500 µg/mL (S. pneumoniae 010010 [1]) [mm],zone of inhibition at 500 µg/mL (E. coli RCMB 010052 [2]) [mm],zone of inhibition at 500 µg/mL (S. typhi ATCC 14028 [3]) [mm],zone of inhibition at 500 µg/mL (P. aeruginosa [4]) [mm],zone of inhibition at 500 µg/mL (A. fumigatus RCMB 02568 [5]) [mm],zone of inhibition at 500 µg/mL (C. albicans ATCC 10231 [6]) [mm],MIC (S. typhi ATCC 14028 [7]) [µM],MIC (S. aureus 25923 [8]) [µM],MIC (E. faecalis [9]) [µM],MIC (S. pneumoniae 010010 [10]) [µM],MIC (E. coli RCMB 010052 [11]) [µM],MIC (P. aeruginosa [12]) [µM],MIC (A. fumigatus RCMB 02568 [13]) [µM],MIC (C. albicans ATCC 10231 [14]) [µM],zone of inhibition at 500 µg/mL (S. aureus 25923 [15]) [mm],zone of inhibition at 500 µg/mL (E. faecalis [16]) [mm]
"Cc1c(NC2=NC(=O)CS2)c(=O)n(-c2ccccc2)n1C [Compound 1, 2-((1,5-Dimethyl-3-oxo-2-phenyl-2,3-dihydro-1H-pyrazol-4-yl)amino)thiazol-4(5H)-one]",30 ± 0.87,26 ± 0.22,21 ± 0.54,27 ± 0.51,25 ± 0.88,22 ± 0.3,62.2,3.63,16.1,3.94,18.3,7.52,20.8,38.3,,
"Cc1c(Nc2nc3c(C(=O)NN)c(N)sc3s2)c(=O)n(-c2ccccc2)n1C [Compound 3c, 5-Amino-2-((1,5-dimethyl-3-oxo-2-phenyl-2,3-dihydro-1H-pyrazol-4-yl)amino) thieno[3,2-d]thiazole-6-carbohydrazide]",25 ± 0.17,28 ± 0.92,21 ± 0.16,23 ± 0.13,24 ± 0.15,18 ± 0.67,64,4.12,17.3,20.1,14.2,42.2,19.2,18.4,30 ± 0.47,27 ± 0.36
